{"source": "the supplement of paper PMC8728848", "binders": {"B1": {"name": "Gal 3 (Homo sapiens), P17931 (protein)", "chain": "MADNFSLHDALSGSGNPNPQGWPGAWGNQPAGAGGYPGASYPGAYPGQAPPGAYPGQAPPGAYHGAPGAYPGAPAPGVYPGPPSGPGAYPSSGQPSAPGAYPATGPYGAPAGPLIVPYNLPLPGGVVPRMLITILGTVKPNANILDFQRGNDVAFHFNPRFNENNRRVIVCNTKLDNNWGREEIQSVFPFESGKPFKIQVLVEPDHFKVAVNDAHLLQYNHRVKKLNEISKLGISGDIDLTSASYTMI"}}, "assay_in_all_cases": "glycan array binding signal (z-score within array); higher = stronger binding", "conditions_in_all_cases": "glycan notation: IUPAC condensed, linker removed; mutation: R186I", "key": {"[1]": {"target": "Gal(b1-4)GlcNAc(b1-2)Man(a1-6)[GlcNAc(b1-2)Man(a1-3)]Man(b1-4)GlcNAc(b1-4)GlcNAc", "procedure,_shortened": "(§1)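 Glycan array binding is given as a within-array Z-score, which can be read as non-binding when negative. The arrays, 3228 of them, came from the Consortium for Functional Glycomics database and were retained only where the protein sequence was available. Z-scores were averaged across arrays of the same protein sequence at different concentrations or buffers and across linkers.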"}, "[2]": {"target": "Gal(b1-4)GlcNAc(b1-2)Man(a1-6)[Man(a1-3)]Man(b1-4)GlcNAc(b1-4)GlcNAc", "procedure,_shortened": "as §1"}, "[3]": {"target": "Gal(b1-4)GlcNAc(b1-2)[Gal(b1-4)GlcNAc(b1-4)]Man(a1-3)[Gal(b1-4)GlcNAc(b1-2)Man(a1-6)]Man(b1-4)GlcNAc(b1-4)GlcNAc", "procedure,_shortened": "as §1"}, "[4]": {"target": "Gal(b1-4)GlcNAc(b1-2)[Gal(b1-4)GlcNAc(b1-4)]Man(a1-3)[Gal(b1-4)GlcNAc(b1-2)[Gal(b1-4)GlcNAc(b1-6)]Man(a1-6)]Man(b1-4)GlcNAc(b1-4)GlcNAc", "procedure,_shortened": "as §1"}, "[5]": {"target": "Gal(b1-4)GlcNAc(b1-3)Gal(b1-3)GlcNAc", "procedure,_shortened": "as §1"}, "[6]": {"target": "Gal(b1-4)GlcNAc(b1-3)Gal(b1-4)Glc", "procedure,_shortened": "as §1"}, "[7]": {"target": "Gal(b1-4)GlcNAc(b1-3)Gal(b1-4)GlcNAc", "procedure,_shortened": "as §1"}, "[8]": {"target": "Gal(b1-4)GlcNAc(b1-3)Gal(b1-4)GlcNAc(b1-3)Gal(b1-4)GlcNAc", "procedure,_shortened": "as §1"}, "[9]": {"target": "Gal(b1-4)GlcNAc(b1-3)Gal(b1-4)[Fuc(a1-3)]GlcNAc(b1-3)Gal(b1-4)[Fuc(a1-3)]GlcNAc", "procedure,_shortened": "as §1"}, "[10]": {"target": "Gal(b1-4)GlcNAc(b1-3)GalNAc", "procedure,_shortened": "as §1"}, "[11]": {"target": "Gal(b1-4)GlcNAc(b1-3)[Gal(b1-4)GlcNAc(b1-6)]Gal(b1-4)GlcNAc", "procedure,_shortened": "as §1"}, "[12]": {"target": "Gal(b1-4)GlcNAc(b1-3)[Gal(b1-4)GlcNAc(b1-6)]GalNAc", "procedure,_shortened": "as §1"}, "[13]": {"target": "Gal(b1-4)GlcNAc(b1-3)[GlcNAc(b1-6)]Gal(b1-4)GlcNAc", "procedure,_shortened": "as §1"}, "[14]": {"target": "Gal(b1-4)GlcNAc(b1-6)Gal(b1-4)GlcNAc", "procedure,_shortened": "as §1"}, "[15]": {"target": "Gal(b1-4)GlcNAc(b1-6)GalNAc", "procedure,_shortened": "as §1"}, "[16]": {"target": "Gal(b1-4)GlcNAc(b1-6)[Gal(b1-3)]GalNAc", "procedure,_shortened": "as §1"}, "Gal3S(b1-3)GalNAc": {"target": "Gal3S(b1-3)GalNAc", "procedure,_shortened": "as §1"}, "Gal3S(b1-3)GlcNAc": {"target": "Gal3S(b1-3)GlcNAc", "procedure,_shortened": "as §1"}, "[17]": {"target": "Gal3S(b1-3)[Fuc(a1-4)]GlcNAc", "procedure,_shortened": "as §1"}, "Gal3S(b1-4)Glc": {"target": "Gal3S(b1-4)Glc", "procedure,_shortened": "as §1"}, "Gal3S(b1-4)Glc6S": {"target": "Gal3S(b1-4)Glc6S", "procedure,_shortened": "as §1"}, "Gal3S(b1-4)GlcNAc": {"target": "Gal3S(b1-4)GlcNAc", "procedure,_shortened": "as §1"}, "Gal3S(b1-4)GlcNAc6S": {"target": "Gal3S(b1-4)GlcNAc6S", "procedure,_shortened": "as §1"}, "[18]": {"target": "Gal3S(b1-4)[Fuc(a1-3)]Glc", "procedure,_shortened": "as §1"}, "[19]": {"target": "Gal3S(b1-4)[Fuc(a1-3)]Glc6S", "procedure,_shortened": "as §1"}, "Gal3S4S(b1-4)GlcNAc": {"target": "Gal3S4S(b1-4)GlcNAc", "procedure,_shortened": "as §1"}, "Gal3S6S(b1-4)GlcNAc": {"target": "Gal3S6S(b1-4)GlcNAc", "procedure,_shortened": "as §1"}, "Gal3S6S(b1-4)GlcNAc6S": {"target": "Gal3S6S(b1-4)GlcNAc6S", "procedure,_shortened": "as §1"}, "Gal4S(b1-4)GlcNAc": {"target": "Gal4S(b1-4)GlcNAc", "procedure,_shortened": "as §1"}, "Gal4S6S(b1-4)GlcNAc": {"target": "Gal4S6S(b1-4)GlcNAc", "procedure,_shortened": "as §1"}, "Gal6S(b1-4)Glc": {"target": "Gal6S(b1-4)Glc", "procedure,_shortened": "as §1"}, "Gal6S(b1-4)Glc6S": {"target": "Gal6S(b1-4)Glc6S", "procedure,_shortened": "as §1"}, "Gal6S(b1-4)GlcNAc": {"target": "Gal6S(b1-4)GlcNAc", "procedure,_shortened": "as §1"}, "Gal6S(b1-4)GlcNAc6S": {"target": "Gal6S(b1-4)GlcNAc6S", "procedure,_shortened": "as §1"}, "GalNAc(a1-3)Gal": {"target": "GalNAc(a1-3)Gal", "procedure,_shortened": "as §1"}, "GalNAc(a1-3)GalNAc": {"target": "GalNAc(a1-3)GalNAc", "procedure,_shortened": "as §1"}, "[20]": {"target": "GalNAc(a1-3)GalNAc(a1-3)Gal(a1-4)Gal(b1-4)GlcNAc", "procedure,_shortened": "as §1"}, "GalNAc(b1-3)Gal": {"target": "GalNAc(b1-3)Gal", "procedure,_shortened": "as §1"}}, "note": "This is one part of the list."}
{"binder": "B1", "values": [{"measurement": "glycan array binding signal (z-score)", "setting": "[1]", "result": -0.094}, {"measurement": "glycan array binding signal (z-score)", "setting": "[2]", "result": -0.193}, {"measurement": "glycan array binding signal (z-score)", "setting": "[3]", "result": -0.118}, {"measurement": "glycan array binding signal (z-score)", "setting": "[4]", "result": -0.197}, {"measurement": "glycan array binding signal (z-score)", "setting": "[5]", "result": 0.065}, {"measurement": "glycan array binding signal (z-score)", "setting": "[6]", "result": 1.41}, {"measurement": "glycan array binding signal (z-score)", "setting": "[7]", "result": 0.121}, {"measurement": "glycan array binding signal (z-score)", "setting": "[8]", "result": -0.011}, {"measurement": "glycan array binding signal (z-score)", "setting": "[9]", "result": -0.1}, {"measurement": "glycan array binding signal (z-score)", "setting": "[10]", "result": -0.162}, {"measurement": "glycan array binding signal (z-score)", "setting": "[11]", "result": 0.077}, {"measurement": "glycan array binding signal (z-score)", "setting": "[12]", "result": 0.026}, {"measurement": "glycan array binding signal (z-score)", "setting": "[13]", "result": -0.076}, {"measurement": "glycan array binding signal (z-score)", "setting": "[14]", "result": -0.192}, {"measurement": "glycan array binding signal (z-score)", "setting": "[15]", "result": -0.176}, {"measurement": "glycan array binding signal (z-score)", "setting": "[16]", "result": -0.148}, {"measurement": "glycan array binding signal (z-score)", "setting": "Gal3S(b1-3)GalNAc", "result": -0.161}, {"measurement": "glycan array binding signal (z-score)", "setting": "Gal3S(b1-3)GlcNAc", "result": -0.144}, {"measurement": "glycan array binding signal (z-score)", "setting": "[17]", "result": -0.18}, {"measurement": "glycan array binding signal (z-score)", "setting": "Gal3S(b1-4)Glc", "result": -0.189}, {"measurement": "glycan array binding signal (z-score)", "setting": "Gal3S(b1-4)Glc6S", "result": -0.17}, {"measurement": "glycan array binding signal (z-score)", "setting": "Gal3S(b1-4)GlcNAc", "result": -0.164}, {"measurement": "glycan array binding signal (z-score)", "setting": "Gal3S(b1-4)GlcNAc6S", "result": -0.151}, {"measurement": "glycan array binding signal (z-score)", "setting": "[18]", "result": -0.171}, {"measurement": "glycan array binding signal (z-score)", "setting": "[19]", "result": -0.106}, {"measurement": "glycan array binding signal (z-score)", "setting": "Gal3S4S(b1-4)GlcNAc", "result": -0.188}, {"measurement": "glycan array binding signal (z-score)", "setting": "Gal3S6S(b1-4)GlcNAc", "result": -0.162}, {"measurement": "glycan array binding signal (z-score)", "setting": "Gal3S6S(b1-4)GlcNAc6S", "result": -0.183}, {"measurement": "glycan array binding signal (z-score)", "setting": "Gal4S(b1-4)GlcNAc", "result": -0.189}, {"measurement": "glycan array binding signal (z-score)", "setting": "Gal4S6S(b1-4)GlcNAc", "result": -0.177}, {"measurement": "glycan array binding signal (z-score)", "setting": "Gal6S(b1-4)Glc", "result": -0.18}, {"measurement": "glycan array binding signal (z-score)", "setting": "Gal6S(b1-4)Glc6S", "result": 0.239}, {"measurement": "glycan array binding signal (z-score)", "setting": "Gal6S(b1-4)GlcNAc", "result": -0.167}, {"measurement": "glycan array binding signal (z-score)", "setting": "Gal6S(b1-4)GlcNAc6S", "result": -0.191}, {"measurement": "glycan array binding signal (z-score)", "setting": "GalNAc(a1-3)Gal", "result": -0.188}, {"measurement": "glycan array binding signal (z-score)", "setting": "GalNAc(a1-3)GalNAc", "result": -0.174}, {"measurement": "glycan array binding signal (z-score)", "setting": "[20]", "result": -0.188}, {"measurement": "glycan array binding signal (z-score)", "setting": "GalNAc(b1-3)Gal", "result": -0.193}]}
